Source: the supplement of paper PMC10338343
± gives the standard deviation. This is a selection; strong and weak results do not stand in their true shares.

The sequences below were run on MIWI (PIWIL1) piRISC loaded with piRNA #1 (30 nt) (assay: pre-steady-state target cleavage rate (min^-1); MIWI and MILI are mouse PIWI proteins and EfPiwi is from a freshwater sponge; tags in brackets are library labels; higher = faster piRNA-guided slicing of the target). Details: guide: piRNA #1 5'p-UGAGGUAGUAGGUUGUAUAGUAUCCAGAGG; auxiliary factor: 500 nM mouse GTSF1.
Method in brief: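 Cleave-'n-Seq reactions paired 0.1 nM transcribed, DNA-blocked target RNA library with 1 nM active affinity-purified piRISC holding one synthetic guide, plus or minus 500 nM GTSF1 partner protein, in HEPES–potassium acetate buffer at 33 °C for 0–8 or 0–960 min. After sequencing of uncleaved targets and normalisation to depth and weakly complementary targets, the pre-steady-state cleavage rate was taken from a burst-and-steady-state fit. Three trials were pooled, and k3 was capped at 0.0001 min^-1.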
For CCUCUGGAUACUAUACAUACCUACUACCUCA, the “pre-steady-state target cleavage rate” value was 0.0115 ± 0.005. For GCACUGCAUACUAUACAACCUACUACCUCA, the “pre-steady-state target cleavage rate” value was 1.75 ± 0.11. For GCUCUGGAUACUAUACAUCCUACAACCUCA, the “pre-steady-state target cleavage rate” value was 1.35 ± 0.11. For GGAGACCUAUGUAUACAACCUACUACAUCA, the “pre-steady-state target cleavage rate” value was 0.241 ± 0.028. With GGAGACCUUAGUAUUCAACCUACUACCUCA the “pre-steady-state target cleavage rate” value was 0.0304 ± 0.0054. For GGUCUGGAUACUAUACAACCUACUACCUUA, the “pre-steady-state target cleavage rate” value was 1.01 ± 0.075. For GGAGACCUUACUAUACGACCUACUACCUCA, the “pre-steady-state target cleavage rate” value was 0.907 ± 0.076. For CCUCUGGAUACUAAACAACCUACUACCACA, the “pre-steady-state target cleavage rate” value was 1.76 ± 0.12. With GGAGACGAUACUAUACAACCUACUACCUACA the “pre-steady-state target cleavage rate” value was 1.2 ± 0.077. GGAGACCUAUGAUAUCAACCUAGAUCCUCA was tested, and the “pre-steady-state target cleavage rate” value was under 0.0001. In the case of CCUCUGGAUAGUAUACAUCCUACUACCUCA, the “pre-steady-state target cleavage rate” value is reported as 0.245 ± 0.03. For GGAGAGGAUUCUAUACAACCUACUACCUCA, the “pre-steady-state target cleavage rate” value was 1.7 ± 0.099. GGAGACCUAUGUAUACAUCCUACUAGCUCA was tested, and the “pre-steady-state target cleavage rate” value was 0.00199 ± 0.0016. For GGAGAGGAUAUCUAUACAACCUACUACCUCA, the “pre-steady-state target cleavage rate” value was 0.726 ± 0.039. GGUCUGGAUACUAUACAAGCUACUACCUGA was tested, and the “pre-steady-state target cleavage rate” value was 0.701 ± 0.051. In the case of GGAGAGGAUAGUAAACAACCUACUACCUCA, the “pre-steady-state target cleavage rate” value is reported as 0.125 ± 0.027.
